# Measured values: paper PMC4336329 (PLoS ONE, 2015)
# The whole screen tested about 310,000 compounds, of which about 2,200 (0.71%) showed an effect of 50% or more. Effects have a minus sign here. The list shows a part of the results.
# Biological target: human ether-à-go-go-related gene (hERG) potassium channel (human, UniProt Q12809)
# Test: primary screen, population patch clamp on CHO cells stably expressing hERG
# human ether-à-go-go-related gene (hERG) potassium channel, sequence (Q12809 whole entry, looked up): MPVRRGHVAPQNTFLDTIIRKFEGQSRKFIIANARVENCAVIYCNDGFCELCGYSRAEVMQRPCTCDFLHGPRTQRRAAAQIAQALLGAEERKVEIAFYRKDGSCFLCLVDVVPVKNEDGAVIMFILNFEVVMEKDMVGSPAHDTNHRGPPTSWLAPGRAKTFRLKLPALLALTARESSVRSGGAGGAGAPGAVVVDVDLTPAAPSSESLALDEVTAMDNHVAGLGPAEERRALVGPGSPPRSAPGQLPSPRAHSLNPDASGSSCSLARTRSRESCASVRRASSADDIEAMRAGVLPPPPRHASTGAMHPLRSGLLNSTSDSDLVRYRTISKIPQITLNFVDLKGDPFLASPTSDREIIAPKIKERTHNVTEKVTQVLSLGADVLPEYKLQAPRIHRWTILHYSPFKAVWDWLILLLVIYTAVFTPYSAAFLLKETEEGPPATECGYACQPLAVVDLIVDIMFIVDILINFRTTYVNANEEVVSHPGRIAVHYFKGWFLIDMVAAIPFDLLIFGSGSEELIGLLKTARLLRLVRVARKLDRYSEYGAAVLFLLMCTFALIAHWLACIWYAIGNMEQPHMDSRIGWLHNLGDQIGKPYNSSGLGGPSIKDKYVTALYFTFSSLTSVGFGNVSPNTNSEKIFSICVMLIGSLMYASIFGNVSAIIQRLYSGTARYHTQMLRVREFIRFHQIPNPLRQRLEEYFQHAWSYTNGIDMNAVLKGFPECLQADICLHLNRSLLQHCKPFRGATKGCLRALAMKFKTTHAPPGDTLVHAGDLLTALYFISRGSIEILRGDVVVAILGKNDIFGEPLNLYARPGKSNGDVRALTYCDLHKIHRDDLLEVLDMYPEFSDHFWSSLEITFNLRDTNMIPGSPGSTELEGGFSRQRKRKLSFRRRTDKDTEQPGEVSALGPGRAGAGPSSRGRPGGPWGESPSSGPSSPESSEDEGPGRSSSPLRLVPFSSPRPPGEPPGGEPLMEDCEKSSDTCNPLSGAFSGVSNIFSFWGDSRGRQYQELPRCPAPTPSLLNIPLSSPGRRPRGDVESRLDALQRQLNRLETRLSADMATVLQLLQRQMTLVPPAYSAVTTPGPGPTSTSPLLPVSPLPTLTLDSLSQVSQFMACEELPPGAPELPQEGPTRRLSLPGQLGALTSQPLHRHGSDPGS
row,Compound,"hERG current change (%, negative = inhibition) at 1uM [%]"
1,Nc1ccc(C(=O)NCC(=O)O)cc1,14.5
2,COC(=O)c1ccc(CS(=O)(=O)c2ccc(C)cc2)o1,19.4
3,CC1=C(C(=O)Nc2ccccc2)C(c2cc(CN3CCOCC3)cs2)C2=C(CCCC2=O)N1 (stereo not shown),15.6
4,C=CCN(CC=C)C(=O)C(=O)c1ccn(-c2c(C)csc2C(=O)OC)c1,-59.3
5,Nc1[nH]nc2nc(N3CCCC3)nc(-c3ccccc3)c12,0.157
6,O=C(O)[C@H](Cc1ccccc1)NC(=O)C(c1ccccc1)(c1ccccc1)c1ccccc1,19.4
7,Cn1c(=O)[nH]c(=O)c2c1nc(NC1CCCCC1)n2CCO,-5.54
8,CCCCN(C)C(=O)c1nc2ccccn2c1CN1CCSCC1,12.1
9,Cc1ccc(C(=O)NCC(=O)OC(C)C(=O)Nc2ccc(N(C)C)cc2)s1 (stereo not shown),11.3
10,Cc1c(O)nc2sc3ccccc3n2c1=O,11.7
11,CCN(Cc1ccccc1)C(=O)Cn1c(C(C)O)nc2ccccc21 (stereo not shown),-2.61
12,O=C(c1ccc(S(=O)(=O)N2CCCCCC2)cc1)N1CCN(c2ccccn2)CC1,-3.53
13,Cc1ccc(C(=O)C[n+]2cccc(C(N)=O)c2)cc1.[Br-],17.8
14,Cc1cccc(C(=O)NC(=S)N(C)C2CCCCC2)c1,0.369
15,CC(=O)c1ccc(OCc2cc(=O)n3ccsc3n2)cc1,9.72
16,Clc1ccc(C2=NNC(=NCc3ccc4c(c3)OCO4)SC2)cc1,5.08
17,COc1ccc(CCNC(=O)CCNS(=O)(=O)c2cc(Br)cnc2N)cc1OC,13.7
18,C=CCn1c(SCCC)nc(O)cc1=O,2.13
19,Cc1ccc(CC(=O)Nc2nccs2)cc1,10.8
20,O=C(NC1CCCC1)c1cccc(S(=O)(=O)N2CCCC2)c1,15.1

row,Compound,"hERG current change (%, negative = inhibition) at 1uM [%]"
1,Cc1ccc(NC(=O)CCC(=O)NNC(=S)Nc2ccc(F)cc2)c(C)c1,12.8
2,CN1CCN(c2nc3c(c(=O)[nH]c(=O)n3C)n2Cc2ccccc2F)CC1,13.9
3,CC(=O)Nc1ccc(NC(=O)CSc2ccc(-c3sc(C)nc3C)nn2)cc1,4.29
4,CC(Oc1ccc(F)cc1)C(=O)Nc1cc(Cl)ccc1-n1cncn1 (stereo not shown),-3.12
5,Cc1cccc(NC(=S)NCc2cccs2)c1,10.7
6,Nc1ccc(-c2nc3ccc([N+](=O)[O-])cc3[nH]2)cc1,12.4
7,O=C(N/N=C/c1ccc2c(c1)OCO2)c1ccc(NC(=O)c2ccccc2Cl)cc1,15.3
8,CSc1ccccc1NC(=O)c1cc(S(=O)(=O)N(C)C)ccc1N1CCCC1,-20.8
9,O=C1CSC(c2ccc(F)c(F)c2)N1c1ccccc1F (stereo not shown),10.5
10,CCOc1ccc(NCC(=O)Nc2ccc(C)cc2C)cc1,9.27
11,CN(CC(=O)Nc1ccc(Cl)cc1)C(=O)Cn1[nH]c(=O)c2ccccc2c1=O,9.93
12,O=C(O)C(=O)O.c1ccc(OCCCN2CCCC2)cc1,5.39
13,Cc1ccc(-c2n[nH]c3c2C(c2ccccc2)N(c2ccc(C(=O)O)cc2)C3=O)cc1 (stereo not shown),9.59
14,CCC(=O)Nc1ccc(NC(=O)C23CC4CC(CC(C4)C2)C3)cn1,10.1
15,O=C(OCC(=O)N1CCN(c2ccccc2)CC1)c1ccc2ccccc2n1,-2.8
16,O=C(O)/C=C/C(=O)N1CCN(C(=O)/C=C/C(=O)O)CC1,-0.705
17,CCOC(=O)c1c(NC(=O)Nc2ccc(F)cc2)sc2c1CCN(C)C2,12.5
18,COc1ccccc1OCCCCN1CCC(C)CC1,4.82
19,Cc1cc(C)c(OCCCn2ccnc2)c(C)c1,14.4
20,CCN(CC)S(=O)(=O)c1ccc2c(c1)CC(C(=O)N1CCCC1)N2C(C)=O (stereo not shown),10.8

row,Compound,"hERG current change (%, negative = inhibition) at 1uM [%]"
1,COc1ccc(N=Nc2ccc(O)c(P(=O)(c3ccccc3)c3ccccc3)c2)cc1,14.2
2,O=C(NCCC1=CCCCC1)C1CCN(Cc2cnn(-c3ccccc3)c2-n2cccc2)CC1,-14.8
3,CCC1CCC(NC2CCCCNC2=O)CC1 (stereo not shown),7.46
4,O=C(c1ccncc1)c1nccn1-c1ccccn1,11.9
5,CCOC(=O)C1=C(C)Nc2ncnn2C1/C=C/c1ccccc1 (stereo not shown),3.32
6,O=C1/C(=C/c2c[nH]c3ccccc23)CCC/C1=C\c1c[nH]c2ccccc12,-4.17
7,COc1ccc(Cl)c(S(=O)(=O)N2CCCC2)c1,3
8,O=C(C1CCCO1)N1CCN(S(=O)(=O)c2ccc(F)cc2)CC1 (stereo not shown),20.7
9,CCCCOc1ccccc1C(=O)NCC(=O)O.[Li+],2.05
10,COc1ccc(NC(=O)CC(C)CC(=O)NCc2ccccc2)c(OC)c1 (stereo not shown),7.6
11,CCOc1ccc(S(=O)(=O)N2CCC(C(=O)N3CCN(c4ccccc4F)CC3)CC2)cc1C,-1.32
12,Cc1ccc(NC2=C(C(=O)c3ccccc3)N(C)S(=O)(=O)c3ccccc32)cc1,4.64
13,O=C(O)c1cccnc1Sc1ccc(Cl)cc1,2.23
14,CCCCNS(=O)(=O)c1ccc2nc(-c3cccnc3)cc(C(=O)NCCOC)c2c1,6.27
15,CCCOC(=O)Nc1ccccc1C(N)=O,-0.606
16,COc1cccc(C(C(=O)NC2CCCCC2)N(C(=O)c2cccs2)c2ccc3c(c2)OCO3)c1 (stereo not shown),6.25
17,CC1(C)OC(=O)C(=CNC(=O)c2c(F)cccc2F)C(=O)O1,11.8
18,COc1cccc(N(C(=O)c2ccco2)C(C(=O)NC2CCCC2)c2ccc(N3CCOCC3)cc2)c1 (stereo not shown),6.24
